Reference: the supplement of paper PMC8285479
Structures can show the parent of a compound that is named as a salt. ± gives the standard deviation of the averaged measurements. In all, about 1,900 compounds were measured (“normalised cell viability (NPI; 0 = phenylarsine oxide control, 1 = DMSO control)”: median about 1, lowest 2% from about 0.039 on). The list shows a part of the results.

System: NCI-H1944
Test: normalised cell viability (NPI; 0 = phenylarsine oxide control, 1 = DMSO control) (fraction of DMSO control); NCI-H1944 is a non-small cell lung cancer line; higher = more viable cells (less compound toxicity)
Settings: 6 days
[1] = glucocorticoid arm: hydrocortisone 2.75 uM co-treatment, compound 1 µM
[2] = glucocorticoid arm: hydrocortisone 2.75 uM co-treatment, compound 5 µM
[3] = glucocorticoid arm: hydrocortisone 2.75 uM pre-treated 2 days and continued, compound 1 µM
[4] = glucocorticoid arm: hydrocortisone 2.75 uM pre-treated 2 days and continued, compound 5 µM
[5] = glucocorticoid arm: vehicle, compound 1 µM
[6] = glucocorticoid arm: vehicle, compound 5 µM
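Note: CTB read-out in 384-well plates, mean of triplicate wells, normalised per plate against 1 µM phenylarsine oxide and 0.1% DMSO, compounds added 24 h after seeding.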

## CC(C)NC[C@H](O)COc1ccc(CC(N)=O)cc1 [S(-)-Atenolol]
[1]
  normalised cell viability: 0.993 ± 0.0036
[2]
  normalised cell viability: 0.9927 ± 0.0063
[3]
  normalised cell viability: 1.006 ± 0.0063
[4]
  normalised cell viability: 0.994 ± 0.0085
[5]
  normalised cell viability: 1.01 ± 0.015
[6]
  normalised cell viability: 1.003 ± 0.0064

## CO[C@@]1(NC(=O)CSCC#N)C(=O)N2C(C(=O)O)=C(CSc3nnnn3C)CS[C@@H]21 [Cefmetazole sodium salt]
[1]
  normalised cell viability: 0.9883 ± 0.009
[2]
  normalised cell viability: 0.995 ± 0.014
[3]
  normalised cell viability: 0.9853 ± 0.0087
[4]
  normalised cell viability: 0.9805 ± 0.0035
[5]
  normalised cell viability: 0.9703 ± 0.0075
[6]
  normalised cell viability: 0.9723 ± 0.004

## O=C(O)c1ccccc1Nc1ccccc1 [N-Phenylanthranilic acid]
[1]
  normalised cell viability: 0.997 ± 0.0017
[2]
  normalised cell viability: 0.988 ± 0.0089
[3]
  normalised cell viability: 0.996 ± 0.013
[4]
  normalised cell viability: 0.983 ± 0.023
[5]
  normalised cell viability: 0.982 ± 0.016
[6]
  normalised cell viability: 0.9863 ± 0.0061

## C=CC[C@H](N)C(=O)O [L-allylglycine]
[1]
  normalised cell viability: 0.997 ± 0.011
[2]
  normalised cell viability: 0.998 ± 0.021
[3]
  normalised cell viability: 1 ± 0.014
[4]
  normalised cell viability: 1.01 ± 0.025
[5]
  normalised cell viability: 0.995 ± 0.015
[6]
  normalised cell viability: 0.9967 ± 0.0049

## Brc1ccc([C@H]2CN3CCSC3=N2)cc1 [S(-)-p-Bromotetramisole oxalate]
[1]
  normalised cell viability: 0.9827 ± 0.0057
[2]
  normalised cell viability: 0.975 ± 0.019
[3]
  normalised cell viability: 0.97933 ± 0.00058
[4]
  normalised cell viability: 0.9875 ± 0.005
[5]
  normalised cell viability: 0.978 ± 0.0095
[6]
  normalised cell viability: 0.9813 ± 0.0011

## CCN(CCO)CCCOc1ccc2c(Nc3cc(CC(=O)Nc4cccc(F)c4)[nH]n3)ncnc2c1 [Barasertib (AZD1152-HQPA)]
[1]
  normalised cell viability: 0.934 ± 0.026
[2]
  normalised cell viability: 0.896 ± 0.032
[3]
  normalised cell viability: 0.947 ± 0.049
[4]
  normalised cell viability: 0.963 ± 0.035
[5]
  normalised cell viability: 0.757 ± 0.041
[6]
  normalised cell viability: 0.66 ± 0.08

## CCCCCCCCCCCCCCCC(=O)NCCO [Palmitoylethanolamide]
[1]
  normalised cell viability: 0.98 ± 0.021
[2]
  normalised cell viability: 0.966 ± 0.013
[3]
  normalised cell viability: 0.9873 ± 0.0095
[4]
  normalised cell viability: 1.02 ± 0.071
[5]
  normalised cell viability: 0.9747 ± 0.0055
[6]
  normalised cell viability: 0.984 ± 0.0046

## CO[C@@H](C(=O)N1Cc2[nH]nc(NC(=O)c3ccc(N4CCN(C)CC4)cc3)c2C1)c1ccccc1
[1]
  normalised cell viability: 0.744 ± 0.037
[2]
  normalised cell viability: 0.525 ± 0.048
[3]
  normalised cell viability: 0.862 ± 0.061
[4]
  normalised cell viability: 0.703 ± 0.077
[5]
  normalised cell viability: 0.431 ± 0.036
[6]
  normalised cell viability: 0.206 ± 0.022

## NC12CC3CC(CC(C3)C1)C2 [Amantadine HCl]
[1]
  normalised cell viability: 1.007 ± 0.0058
[2]
  normalised cell viability: 0.983 ± 0.013
[3]
  normalised cell viability: 1 ± 0.017
[4]
  normalised cell viability: 1.01 ± 0.021
[5]
  normalised cell viability: 1 ± 0.011
[6]
  normalised cell viability: 1.002 ± 0.0072

## NC12CC3CC(CC(C3)C1)C2 [Amantadine hydrochloride]
[1]
  normalised cell viability: 0.982 ± 0.018
[2]
  normalised cell viability: 0.961 ± 0.027
[3]
  normalised cell viability: 0.9937 ± 0.0042
[4]
  normalised cell viability: 0.947 ± 0.012
[5]
  normalised cell viability: 0.986 ± 0.012
[6]
  normalised cell viability: 0.9747 ± 0.0086

## N#C/C(=C\c1ccc(O)c(O)c1)C(=O)c1ccc(O)c(O)c1 [Tyrphostin AG 538]
[1]
  normalised cell viability: 1.01 ± 0.01
[2]
  normalised cell viability: 1.02 ± 0.017
[3]
  normalised cell viability: 1.03 ± 0.035
[4]
  normalised cell viability: 1.013 ± 0.0058
[5]
  normalised cell viability: 1.007 ± 0.0058
[6]
  normalised cell viability: 1.003 ± 0.0061

## CC1(C2CCCC2)Cc2cc(OCC(=O)O)c(Cl)c(Cl)c2C1=O (stereo not given)
[1]
  normalised cell viability: 0.983 ± 0.014
[2]
  normalised cell viability: 0.982 ± 0.037
[3]
  normalised cell viability: 0.9883 ± 0.0072
[4]
  normalised cell viability: 0.986 ± 0.084
[5]
  normalised cell viability: 0.998 ± 0.011
[6]
  normalised cell viability: 0.9853 ± 0.0067

## NCC=CC(=O)O (stereo in doubt) [cis-4-Aminocrotonic acid]
[1]
  normalised cell viability: 0.992 ± 0.0092
[2]
  normalised cell viability: 0.993 ± 0.015
[3]
  normalised cell viability: 0.9857 ± 0.0042
[4]
  normalised cell viability: 0.9765 ± 0.0092
[5]
  normalised cell viability: 0.973 ± 0.0079
[6]
  normalised cell viability: 0.9753 ± 0.0086

## CC(=O)[C@H]1CC[C@H]2[C@@H]3CC=C4C[C@@H](OS(=O)(=O)O)CC[C@]4(C)[C@H]3CC[C@]12C [Pregnenolone sulfate sodium]
[1]
  normalised cell viability: 0.994 ± 0.0036
[2]
  normalised cell viability: 0.982 ± 0.025
[3]
  normalised cell viability: 0.998 ± 0.013
[4]
  normalised cell viability: 0.964 ± 0.026
[5]
  normalised cell viability: 0.993 ± 0.0044
[6]
  normalised cell viability: 0.992 ± 0.0095

## CCCN(CCc1cccs1)[C@H]1CCc2c(O)cccc2C1 [Rotigotine]
[1]
  normalised cell viability: 1.01 ± 0.016
[2]
  normalised cell viability: 0.992 ± 0.031
[3]
  normalised cell viability: 1.01 ± 0.01
[4]
  normalised cell viability: 1.013 ± 0.0058
[5]
  normalised cell viability: 0.9953 ± 0.0057
[6]
  normalised cell viability: 0.996 ± 0.0027

## COc1cc2ncc(-c3ccccc3)nc2cc1OC [Tyrphostin AG 1296]
[1]
  normalised cell viability: 1.04 ± 0.015
[2]
  normalised cell viability: 1.097 ± 0.0058
[3]
  normalised cell viability: 1.047 ± 0.0058
[4]
  normalised cell viability: 1.06 ± 0.02
[5]
  normalised cell viability: 1.007 ± 0.0058
[6]
  normalised cell viability: 1.01 ± 0.021

## COc1cc(Nc2ncc(F)c(Nc3ccc4c(n3)NC(=O)C(C)(C)O4)n2)cc(OC)c1OC [R406(free base)]
[1]
  normalised cell viability: 0.748 ± 0.024
[2]
  normalised cell viability: 0.826 ± 0.034
[3]
  normalised cell viability: 0.854 ± 0.017
[4]
  normalised cell viability: 0.88 ± 0.08
[5]
  normalised cell viability: 0.874 ± 0.025
[6]
  normalised cell viability: 0.96 ± 0.016

## COc1cc(Nc2ncc(F)c(Nc3ccc4c(n3)NC(=O)C(C)(C)O4)n2)cc(OC)c1OC
[1]
  normalised cell viability: 0.771 ± 0.012
[2]
  normalised cell viability: 0.88 ± 0.015
[3]
  normalised cell viability: 0.853 ± 0.0087
[4]
  normalised cell viability: 0.911 ± 0.04
[5]
  normalised cell viability: 0.902 ± 0.014
[6]
  normalised cell viability: 0.967 ± 0.011

## COc1ccc(C(=O)Nc2sc3c(c2C(N)=O)CCCC3)cc1OC
[1]
  normalised cell viability: 0.987 ± 0.01
[2]
  normalised cell viability: 0.943 ± 0.036
[3]
  normalised cell viability: 0.954 ± 0.014
[4]
  normalised cell viability: 0.972 ± 0.025
[5]
  normalised cell viability: 0.999 ± 0.01
[6]
  normalised cell viability: 0.982 ± 0.012

## COc1ccc(-c2ccc(=N)n(CCCC(=O)O)n2)cc1
[1]
  normalised cell viability: 0.988 ± 0.007
[2]
  normalised cell viability: 1 ± 0.016
[3]
  normalised cell viability: 1.02 ± 0.026
[4]
  normalised cell viability: 1 ± 0.015
[5]
  normalised cell viability: 1.01
[6]
  normalised cell viability: 0.996 ± 0.0069

## CSc1ccc(C(=O)c2[nH]c(=O)[nH]c2C)cc1 [Enoximone]
[1]
  normalised cell viability: 0.997 ± 0.012
[2]
  normalised cell viability: 0.964 ± 0.054
[3]
  normalised cell viability: 0.999 ± 0.01
[4]
  normalised cell viability: 0.973 ± 0.016
[5]
  normalised cell viability: 0.9957 ± 0.0038
[6]
  normalised cell viability: 0.9913 ± 0.0035

## S=C(Nc1ccccc1)Nc1nccs1 [1-Phenyl-3-(2-thiazolyl)-2-thiourea]
[1]
  normalised cell viability: 1.017 ± 0.0058
[2]
  normalised cell viability: 1.04 ± 0.017
[3]
  normalised cell viability: 1.02 ± 0.015
[4]
  normalised cell viability: 0.903 ± 0.24
[5]
  normalised cell viability: 0.999 ± 0.0017
[6]
  normalised cell viability: 1.02 ± 0.011

## CS(=O)(=O)c1cccc(CNc2nc(Nc3ccc4c(c3)CCC(=O)N4)ncc2C(F)(F)F)c1
[1]
  normalised cell viability: 0.889 ± 0.017
[2]
  normalised cell viability: 0.736 ± 0.026
[3]
  normalised cell viability: 0.851 ± 0.014
[4]
  normalised cell viability: 0.839 ± 0.077
[5]
  normalised cell viability: 0.99 ± 0.011
[6]
  normalised cell viability: 0.954 ± 0.018

## CC1(C)CCC(CN2CCN(c3ccc(C(=O)NS(=O)(=O)c4ccc(NCC5CCOCC5)c([N+](=O)[O-])c4)c(Oc4cnc5[nH]ccc5c4)c3)CC2)=C(c2ccc(Cl)cc2)C1
[1]
  normalised cell viability: 0.9903 ± 0.0095
[2]
  normalised cell viability: 1.02 ± 0.021
[3]
  normalised cell viability: 0.996 ± 0.012
[4]
  normalised cell viability: 1.03 ± 0.01
[5]
  normalised cell viability: 0.9933 ± 0.0091
[6]
  normalised cell viability: 0.9943 ± 0.0098

## CC(C)(C)n1nc(-c2ccc(Cl)cc2)c2c(N)ncnc21
[1]
  normalised cell viability: 0.866 ± 0.017
[2]
  normalised cell viability: 0.799 ± 0.024
[3]
  normalised cell viability: 0.822 ± 0.023
[4]
  normalised cell viability: 0.805 ± 0.032
[5]
  normalised cell viability: 0.957 ± 0.012
[6]
  normalised cell viability: 0.965 ± 0.029
